“And” between values parts separate entries of the source, which are not always exact repeats. Equal entries are not always repeated. Structures can show the parent of a compound that is named as a salt. Among all 5,800 compounds or so, about 620 (11%) showed activity.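 Rule for the calls: active = score above a cut-off or among the top three wells of a plate; in these data no inactive exceeds 0.85.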 This is a selection; strong and weak results do not stand in their true shares.
System: primary human hepatic stellate cells (donor 1)
Assay: scaled lipid accumulation score (0 = DMSO-like, 1 = nortriptyline-like); higher = stronger HSC inactivation (lipid re-accumulation), active = hit call of the paper
Conditions: 48 h
[1] = library stock concentration: 1 mM
[2] = library stock concentration: 10 mM
[3] = library stock concentration: 3.33 mM
[4] = library stock concentration: 5.1 mM

CCCCC/C=C/C=C1/C=CC(=O)[C@@H]1C/C=C\CCCC(=O)O [15-deoxy-.DELTA.12,14-Prostaglandin A2]
scaled lipid accumulation score [1]: inactive: ≤ 0

CCC(=O)OCN1C(=O)C=CC1=O
scaled lipid accumulation score [2]: inactive: ≤ -0.001

CC(/C=C1\SC(=S)N(CC(=O)O)C1=O)=C\c1ccccc1 [Epalrestat]
scaled lipid accumulation score [3]: inactive: ≤ 0 | scaled lipid accumulation score [2]: inactive: ≤ 0

c1ccc(CNc2nc(NCc3ccccc3)c3ccccc3n2)cc1
scaled lipid accumulation score [3]: inactive: 0.706 | scaled lipid accumulation score [2]: inactive: 0.074

COc1cccc(NC(=O)/C=C/c2ccc(Cl)cc2)c1
scaled lipid accumulation score [2]: active: 1.2

Cc1nc(N)sc1-c1ccnc(Nc2ccc(N3CCOCC3)cc2)n1
scaled lipid accumulation score [2]: active: 1.02

CC(=O)[C@]1(O)Cc2c(O)c3c(c(O)c2[C@@H](O[C@H]2C[C@H](N)[C@H](O)[C@H](C)O2)C1)C(=O)c1ccccc1C3=O [Idarubicin HCl]
scaled lipid accumulation score [3]: inactive: 0.288 | scaled lipid accumulation score [2]: inactive: 0.179

CC(=O)[C@]1(O)Cc2c(O)c3c(c(O)c2[C@@H](O[C@H]2C[C@H](N)[C@H](O)[C@H](C)O2)C1)C(=O)c1ccccc1C3=O
scaled lipid accumulation score [2]: inactive: 0.372

CC(=O)[C@]1(O)Cc2c(O)c3c(c(O)c2[C@@H](O[C@H]2C[C@H](N)[C@H](O)[C@H](C)O2)C1)C(=O)c1ccccc1C3=O [Idarubicin]
scaled lipid accumulation score (library stock concentration: 4 mM): inactive: 0.387 | scaled lipid accumulation score [2]: inactive: ≤ -0.07

O=c1oc2ccccc2c(O)c1Cc1c(O)c2ccccc2oc1=O [Dicumarol]
scaled lipid accumulation score: inactive: ≤ 0 | scaled lipid accumulation score (library stock concentration: 5.9 mM): inactive: 0.012 | scaled lipid accumulation score [2]: inactive: ≤ 0

O=c1oc2ccccc2c(O)c1Cc1c(O)c2ccccc2oc1=O [Dicoumarol]
scaled lipid accumulation score [3]: inactive: ≤ 0 | scaled lipid accumulation score [2]: inactive: ≤ -0.001

Cn1ccc2cc(NC(=O)Nc3cccnc3)ccc21
scaled lipid accumulation score [2]: inactive: ≤ 0 and inactive: ≤ -0.006

CS(=O)(=O)N1CCc2c(-c3cnc(N)nc3)nc(N3CCOCC3)nc21
scaled lipid accumulation score [3]: inactive: ≤ 0 | scaled lipid accumulation score [2]: inactive: ≤ 0

COc1c2occc2c(OC)c2c(=O)cc(C)oc12 [Khellin]
scaled lipid accumulation score: inactive: ≤ 0 | scaled lipid accumulation score [2]: inactive: 0.326

CCCCC[C@H](O)/C=C/[C@@H]1[C@@H](CCCCCCCO)[C@@H](O)C[C@H]1O [Prostaglandin F1.alpha. Alcohol]
scaled lipid accumulation score [1]: inactive: ≤ 0

CCCCC[C@H](O)/C=C/[C@H]1CC[C@H](O)[C@@H]1CCCCCCC(=O)O [11-deoxy Prostaglandin F1.alpha.]
scaled lipid accumulation score [1]: inactive: ≤ 0

C1CNCCN1 [Piperazine]
scaled lipid accumulation score [2]: inactive: ≤ 0 | scaled lipid accumulation score (library stock concentration: 23.2 mM): inactive: 0.066

Cc1ccccc1CN1C2=NCCN2C(=O)C2=C1CCN(Cc1ccccc1)C2
scaled lipid accumulation score [3]: inactive: ≤ -0.009 | scaled lipid accumulation score [2]: inactive: ≤ 0

Nc1cc(C(Cl)=C(Cl)Cl)c(S(N)(=O)=O)cc1S(N)(=O)=O [Clorsulon]
scaled lipid accumulation score: inactive: 0.01 | scaled lipid accumulation score [3]: inactive: ≤ 0 | scaled lipid accumulation score (library stock concentration: 5.3 mM): inactive: ≤ 0 | scaled lipid accumulation score [2]: inactive: ≤ 0

COc1ccc(CCN(C)CCCC(C#N)(c2cc(OC)c(OC)c(OC)c2)C(C)C)cc1OC (configuration not stated)
scaled lipid accumulation score [2]: inactive: 0.616

CC[C@H](C)C(=O)O[C@H]1CCC=C2C=C[C@H](C)[C@H](CC[C@@H]3C[C@@H](O)CC(=O)O3)[C@H]21 [mevastatin]
scaled lipid accumulation score [2]: inactive: 0.3

CC[C@H](C)C(=O)O[C@H]1CCC=C2C=C[C@H](C)[C@H](CC[C@@H]3C[C@@H](O)CC(=O)O3)[C@H]21 [Mevastatin]
scaled lipid accumulation score [3]: inactive: ≤ 0 | scaled lipid accumulation score [4]: inactive: 0.086 | scaled lipid accumulation score [2]: inactive: 0.482 and inactive: 0.651 and inactive: 0.558

C[N+](C)(C)CC[N+]1(C)Cc2c(Cl)c(Cl)c(Cl)c(Cl)c2C1 [Chlorisondamine diiodide]
scaled lipid accumulation score [2]: inactive: ≤ 0

COc1ccc2c(c1)CCC1C2CC[C@@]2(C)C1CC[C@@H]2NCCCCCCN1C(=O)CCC1=O (some centres not stated)
scaled lipid accumulation score [2]: active: 0.875

C[C@H](CCC(=O)O)[C@H]1CC[C@H]2[C@@H]3[C@H](O)C[C@@H]4C[C@H](O)CC[C@]4(C)[C@H]3CC[C@]12C [Chenodeoxycholic Acid]
scaled lipid accumulation score [3]: inactive: ≤ 0 | scaled lipid accumulation score [2]: inactive: ≤ 0

C[C@H](CCC(=O)O)[C@H]1CC[C@H]2[C@@H]3[C@H](O)C[C@@H]4C[C@H](O)CC[C@]4(C)[C@H]3CC[C@]12C [Chenodiol]
scaled lipid accumulation score: inactive: ≤ 0 | scaled lipid accumulation score [4]: inactive: ≤ 0 | scaled lipid accumulation score [2]: inactive: ≤ 0

NNc1nncc2ccccc12 [Hydralazine hydrochloride]
scaled lipid accumulation score: inactive: ≤ 0 | scaled lipid accumulation score [2]: inactive: 0.079 and inactive: ≤ 0

COc1ccc([C@@H]2CC(=O)c3c(O)cc(O[C@@H]4O[C@H](CO)[C@@H](O)[C@H](O)[C@H]4O[C@@H]4O[C@@H](C)[C@H](O)[C@@H](O)[C@H]4O)cc3O2)cc1O [Neohesperidin]
scaled lipid accumulation score [3]: inactive: ≤ 0 | scaled lipid accumulation score [2]: inactive: 0.039

CC(=O)OCC(CCn1cnc2cnc(N)nc21)COC(C)=O
scaled lipid accumulation score [2]: inactive: 0.002

CC(=O)OCC(CCn1cnc2cnc(N)nc21)COC(C)=O [Famciclovir]
scaled lipid accumulation score [3]: inactive: 0.06 | scaled lipid accumulation score (library stock concentration: 6.2 mM): inactive: 0.002 and inactive: ≤ 0 | scaled lipid accumulation score [2]: inactive: 0.008 and inactive: 0.195 and inactive: 0.085

NCC(O)CC(=O)O (configuration not stated) [Aminohydroxybutyric acid]
scaled lipid accumulation score [2]: inactive: 0.017

Oc1cccc(-c2nc(N3CCOCC3)c3oc4ncccc4c3n2)c1
scaled lipid accumulation score [2]: active: 0.923

O=C1OC2(c3ccc(O)cc3Oc3cc(OS(=O)(=O)c4c(F)c(F)c(F)c(F)c4F)ccc32)c2ccccc21 (configuration not stated) [Pentafluorobenzenesulfonyl fluorescein]
scaled lipid accumulation score [1]: inactive: ≤ 0

CC(C)CC(CC(=O)NO)C(=O)N[C@@H](Cc1ccc2ccccc2c1)C(=O)N[C@@H](C)C(=O)NCCN (some centres not stated)
scaled lipid accumulation score [3]: inactive: ≤ -0.009 | scaled lipid accumulation score [2]: inactive: 0.152

O=C(/C=C/c1ccc(O)c(O)c1)OCCc1ccccc1 [Caffeic Acid Phenethyl Ester]
scaled lipid accumulation score [3]: inactive: 0.273 | scaled lipid accumulation score [2]: inactive: 0.498

O=C(/C=C/c1ccc(O)c(O)c1)OCCc1ccccc1 [Caffeic Acid phenylethyl ester]
scaled lipid accumulation score [1]: inactive: ≤ 0

O=C(/C=C/c1ccc(O)c(O)c1)OCCc1ccccc1 [Caffeic acid phenethyl ester]
scaled lipid accumulation score [2]: inactive: 0.716 and inactive: 0.118

From the supplement of paper PMC9135407
